Reference: PubChem BioAssay AID488969 (Vanderbilt High Throughput Screening Facility, 2010)
The full ranking holds about 110,000 compounds; the median of “z-score” is about -0.1, and the highest 2% start at about 2. The list shows a part of the results. Active and inactive are the calls of the source.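 The calls were made as follows: active = z-score in the third read window above 3 or below -3; inactive = the rest.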

target: Metabotropic glutamate receptor 8 (Rattus norvegicus) (UniProt P70579); assay: mGluR8 Gi/Go-coupled signaling modulation – cell-based, rat, thallium flux, HTS, primary screen (AID 488969); settings: HEK293 rat mGluR8, GIRK (G protein-gated inwardly rectifying potassium channel) thallium flux, FluoZin2; at 10 µM; stronger effect = higher value; submaximal glutamate (EC20) added with thallium
UniProt P70579, sequence (P70579 whole entry, looked up): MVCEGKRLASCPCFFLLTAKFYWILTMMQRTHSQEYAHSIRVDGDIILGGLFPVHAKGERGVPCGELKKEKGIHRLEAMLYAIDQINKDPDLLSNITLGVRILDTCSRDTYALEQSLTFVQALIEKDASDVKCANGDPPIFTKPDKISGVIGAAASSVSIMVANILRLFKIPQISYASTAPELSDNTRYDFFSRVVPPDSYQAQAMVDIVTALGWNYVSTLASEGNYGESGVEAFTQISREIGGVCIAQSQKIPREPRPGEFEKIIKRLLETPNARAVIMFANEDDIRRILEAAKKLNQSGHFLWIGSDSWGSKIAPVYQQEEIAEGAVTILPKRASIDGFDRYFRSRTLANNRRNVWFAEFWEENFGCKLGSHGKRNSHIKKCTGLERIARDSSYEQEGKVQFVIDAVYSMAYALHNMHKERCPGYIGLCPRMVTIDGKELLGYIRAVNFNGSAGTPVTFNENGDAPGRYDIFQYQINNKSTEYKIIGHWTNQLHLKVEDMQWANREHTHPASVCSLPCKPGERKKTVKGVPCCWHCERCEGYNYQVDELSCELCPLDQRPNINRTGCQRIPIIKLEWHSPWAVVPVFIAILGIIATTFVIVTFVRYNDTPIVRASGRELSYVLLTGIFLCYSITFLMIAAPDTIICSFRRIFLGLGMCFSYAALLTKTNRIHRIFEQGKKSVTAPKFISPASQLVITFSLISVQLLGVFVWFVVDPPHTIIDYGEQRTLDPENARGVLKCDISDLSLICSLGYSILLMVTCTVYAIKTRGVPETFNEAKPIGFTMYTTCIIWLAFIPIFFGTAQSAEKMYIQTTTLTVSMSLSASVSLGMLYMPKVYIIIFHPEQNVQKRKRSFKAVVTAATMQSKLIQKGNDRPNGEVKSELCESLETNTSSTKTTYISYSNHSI

Compound | z-score
O=c1[nH][nH]cc1C=Nc1ccccc1O | 0.415
Cc1nn(-c2ccccc2)c2[nH]c(=O)c(CNCc3ccc4c(c3)OCO4)cc12 | -0.638
CCOC(=O)C(C)S(=O)(=O)c1ccc(C(F)(F)F)cn1 (stereo not given) | -0.308
C#CCn1c(S(=O)(=O)Cc2ccc(F)cc2)nc(-c2ccccc2)c1-c1ccccc1 | -0.295
O=C(CN1CCN(Cc2ccccc2)CC1)N/N=C/c1c[nH]c2ccccc12 | 1.1
O=S(=O)(Cc1ccc(Cl)cc1)N1CCN(Cc2ccccc2)CC1 | 0.156
CCOC(=O)C(C(=O)Nc1nc2ccccc2s1)C1CCCCC1 (stereo not given) | -0.116
CCOc1ccccc1OCCOc1ccccc1CC | -0.233
COc1ccc(/C=C2\CCCC3C2=NN(C(=O)c2ccco2)C3c2ccc(OC)c(OC)c2)cc1OC (stereo not given) | -0.333
COc1ccc(NC(=O)CCC(=O)c2cccs2)cc1S(=O)(=O)Nc1ccc(Cl)cc1 | -0.118
Cc1ccc(CN2CCN(/N=C/c3cc(Br)ccc3O)CC2)cc1 | -0.494
Nc1ccc2ncccc2c1 | 0.605
O=C(NCc1cccc(Cl)c1)c1cnccn1 | 0.429
Cc1cccc(N=Cc2[nH]c3ccc(Br)c(Cl)c3c2O)c1 | -0.294
O=C(CSc1nc2c(sc3ccccc32)c(=O)n1CCO)NCC1CCCO1 (stereo not given) | 0.0816
O=C(c1ccc(-n2c(SCc3cccc(F)c3)nc3ccccc3c2=O)cc1)N1CCOCC1 | -0.182
c1ccc(CCCc2nc(-c3ccccn3)no2)cc1 | -0.005
NC(=O)c1ccccc1N=Cc1ccc2ccccc2c1 | -1.08
Cc1cc2ncn(C(=O)c3c(-c4c(Cl)cccc4Cl)noc3C)c2cc1C | 0.106
O=C(c1ccc(S(=O)(=O)c2ccccc2Cl)c([N+](=O)[O-])c1)N1CCN(Cc2ccccc2)CC1 | -0.971
C=CCN(C(=O)Cn1ncc2c1-c1cc(C)ccc1OC2)c1ccccc1 | -0.764
Cn1c(SCc2nc(-c3ccc(Cl)cc3)no2)nnc1-c1cccs1 | -0.0713
Cc1cc(C)nc(NS(=O)(=O)c2ccc(-n3cccc3)cc2)n1 | 0.281
CCCC(=Nc1ccc(N)cc1)C1=C(O)C(C(=O)OC)C(C)(C)CC1=O (stereo not given) | -0.174
O=C(COC(=O)Cn1cnc2ccccc21)Nc1ccc2c(c1)C(=O)c1ccccc1C2=O | -0.238
CCOC(=O)N1CCC(NC(=O)Cn2cc3c(n2)CCC(C)C3)CC1 (stereo not given) | -0.065
O=S(=O)(c1cc(Cl)ccc1Br)N1CCCCC1 | -0.084
Cc1c(NC(=O)Nc2ccc3c(c2)OCO3)c(=O)n(-c2ccccc2)n1C | -0.208

Compound | z-score
COc1cc(C(=O)NCC2CCCO2)cc(OC)c1OC (stereo not given) | 0.0135
Cc1ccc(NCc2nnc(SCC#N)o2)c(C)c1 | 1.28
COC(=O)c1ccccc1S(=O)(=O)N(CCCO)Cc1cc2c(C)ccc(C)c2[nH]c1=O | -0.268
O=C(O)C1CSC2c3ccccc3C(=O)N12 (stereo not given) | 1.36
COc1cc2c(cc1OC)C1C/C(=N\O)C(CC(C)C)CN1CC2 (stereo not given) | 0.804
COc1cc2cc(C#N)c(SCC(=O)N3CCOCC3)nc2cc1OC | 0.593
COc1cccc(NC(=O)CN(Cc2ccccc2)S(C)(=O)=O)c1 | -0.122
COC(=O)COc1ccc(S(=O)(=O)Nc2ccc(C(N)=O)cc2)cc1Cl | 0.0621
O=C(O)CCc1ccc(-c2ccc(F)cc2)n1CCC(=O)O | 0.291
COc1cccc(C2=NOC(C(=O)NCCCn3ccnc3)C2)c1 (stereo not given) | -0.152
C(=C\c1nc(N2CCCCCC2)c2ccccc2n1)/c1ccccc1 | -0.104
COc1ccc(C2NCCO2)cc1OC (stereo not given) | -0.584
O=S(=O)(Cc1ccc(Cl)cc1)Nc1ccc2c(c1)OCO2 | -0.254
CCSc1nnc(NC(=O)CSc2nc3c(c(=O)n2-c2ccccc2OC)SCC3)s1 | -2.55
CC(C)(C)C(=O)Nc1nnc(SCC(=O)NCc2ccco2)s1 | 0.00513
COC(=O)C(NC(C)=O)(Nc1sc2c(c1C(N)=O)CCCC2)C(F)(F)F (stereo not given) | -0.0578
C#CCOC(=O)/C(=C/C=C/c1ccccc1)NC(=O)c1ccccc1 | -0.264
COc1ccc(S(=O)(=O)Nc2ccccc2)cc1OC | 0.597
CCOc1ccc(-c2[nH]ncc2Oc2cccc(OC)c2)c(O)c1 | 0.37
CCOC(=O)CSC1=C(C#N)C(c2ccccc2OC)CC(=O)N1 (stereo not given) | 1.8
CC(=NCC1CCCO1)c1c(O)[nH]c(=O)[nH]c1=O (stereo not given) | -0.392
COc1ccc(/C=N\NC(=O)c2cc(O)c(O)c(O)c2)cc1CN1CCN(c2ccc(F)cc2)CC1 | -0.347
COCCN(CCOC)S(=O)(=O)c1ccc(C(=O)Nc2nnc(C3CC3)o2)cc1 | -0.378
Cc1noc(/C=C/N(C)C)c1S(=O)(=O)N1CCCC(C(=O)Nc2ccc3c(c2)OCO3)C1 (stereo not given) | -0.298
CC(c1ccc(Cl)cc1)n1c(-c2ccc3ccccc3n2)n[nH]c1=S (stereo not given) | active: 7.23
COc1ccc(NC(=O)N2CCC(c3nc(-c4cccs4)no3)CC2)cc1 | -0.229
CCOc1ccccc1OCCOCCOc1c(Cl)cccc1Cl | -0.061
